Measured values as given in patent US9422338B2 (EpoDose LLC, priority 2011, dated 2016).
At least one peptide structure holds a part that was inferred or is arguable (an end, a ring closure or a residue). For at least one compound, name, drawing or mass did not settle the structure. Bridges are numbered along the chain shown (N, C = ends). Roman numbers before positions name the chains, in order. [ ]: non-standard residue; d: D form. ξ: configuration not given here. ξK = NCCCCC(N)C(=O)O; Ava = NCCCCC(=O)O

Target: T1, EPOR (erythropoietin receptor), human recombinant, NSO cells (Homo sapiens, UniProt P19235)
T1 construct: host or cells: NSO cells
T1 sequence (P19235 25-250 limits assumed): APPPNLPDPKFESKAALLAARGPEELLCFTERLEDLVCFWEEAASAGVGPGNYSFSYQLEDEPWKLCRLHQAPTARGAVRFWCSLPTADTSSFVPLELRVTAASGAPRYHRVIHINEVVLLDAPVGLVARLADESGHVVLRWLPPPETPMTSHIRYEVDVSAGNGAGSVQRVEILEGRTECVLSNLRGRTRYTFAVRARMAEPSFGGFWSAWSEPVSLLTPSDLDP
Assay: EPOR radioligand binding assay ([125I] Erythropoietin competition)
Details: for NH (Hill coefficient): Example 3, slope of competitive binding curve; for Ki (AC-0005-002)/Ki: Ki relative to that of AC-0005-002; for Ki/Ki(EPO): Ki relative to that of EPO
Protocol: IC50 values were determined by a non-linear, least squares regression analysis using MATHIQ™ (computer software for integrating mathematical functions into new or existing software). […] Where presented, the Hill coefficient (nH), defining the slope of the competitive binding curve, was calculated using MATHIQ™.

In the case of `CSCC[C@@H]1NC(=O)[C@H](Cc2c[nH]cn2)NC(=O)C(NC(=O)[C@H](CC(C)C)NC(=O)[C@H](Cc2ccc(O)cc2)NC(=O)[C@H](CC(N)=O)NC(C)=O)CCOCC(C(=O)N[C@@H](CCCCNC(=N)N)C(=O)N2CCC[C@H]2C(=O)NCCCCC(=O)NCCCCC(NC(=O)[C@@H]2CCCN2C(=O)[C@H](CCCCNC(=N)N)NC(=O)C2COCCC(NC(=O)[C@H](CC(C)C)NC(=O)[C@H](Cc3ccc(O)cc3)NC(=O)[C@H](CC(N)=O)NC(C)=O)C(=O)N[C@@H](Cc3c[nH]cn3)C(=O)N[C@@H](CCSC)C(=O)N3CCC[C@H]3C(=O)N[C@@H](Cc3c[nH]c4ccccc34)C(=O)N[C@@H](C(C)C)C(=O)N2)C(N)=O)NC(=O)[C@H](C(C)C)NC(=O)[C@H](Cc2c[nH]c3ccccc23)NC(=O)[C@@H]2CCCN2C1=O` (some centres unmarked) [AC-0005-054], the “NH (Hill coefficient)” value is reported as 6.65, the “Ki (AC-0005-002)/Ki” value (Example 4, fifth table) is reported as 250 and the “Ki/Ki(EPO)” value (Example 4, fifth table) is reported as 194.

In the case of `CSCC[C@@H]1NC(=O)[C@H](CCCNC(=N)N)NC(=O)C(NC(=O)[C@H](CC(C)C)NC(=O)[C@H](Cc2ccc(O)cc2)NC(=O)[C@H](CC(N)=O)NC(C)=O)CCOCC(C(=O)N[C@@H](CCCCNC(=N)N)C(=O)N2CCC[C@H]2C(=O)NCCCCC(=O)NCCCCC(NC(=O)[C@@H]2CCCN2C(=O)[C@H](CCCCNC(=N)N)NC(=O)C2COCCC(NC(=O)[C@H](CC(C)C)NC(=O)[C@H](Cc3ccc(O)cc3)NC(=O)[C@H](CC(N)=O)NC(C)=O)C(=O)N[C@@H](CCCNC(=N)N)C(=O)N[C@@H](CCSC)C(=O)N3CCC[C@H]3C(=O)N[C@@H](Cc3ccc4ccccc4c3)C(=O)N[C@@H](C(C)C)C(=O)N2)C(N)=O)NC(=O)[C@H](C(C)C)NC(=O)[C@H](Cc2ccc3ccccc3c2)NC(=O)[C@@H]2CCCN2C1=O` (some centres unmarked) [AC-0005-055], the “NH (Hill coefficient)” value is reported as 1.38, the “Ki (AC-0005-002)/Ki” value (Example 4, fifth table) is reported as 806 and the “Ki/Ki(EPO)” value (Example 4, fifth table) is reported as 60. For the same molecule, the “Ki (AC-0005-002)/Ki” value (Example 4, sixth table) was 645 and the “Ki/Ki(EPO)” value (Example 4, sixth table) was 100.

`CSCC[C@@H]1NC(=O)[C@H](Cc2c[nH]cn2)NC(=O)C(NC(=O)[C@H](CC(C)C)NC(=O)[C@H](Cc2ccc(O)cc2)NC(=O)[C@H](CC(N)=O)NC(C)=O)CCOCC(C(=O)N[C@@H](CCCCNC(=N)N)C(=O)N2CCC[C@H]2C(=O)NCCCCC(=O)NCCCCC(NC(=O)[C@@H]2CCCN2C(=O)[C@H](CCCCNC(=N)N)NC(=O)C2COCCC(NC(=O)[C@H](CC(C)C)NC(=O)[C@H](Cc3ccc(O)cc3)NC(=O)[C@H](CC(N)=O)NC(C)=O)C(=O)N[C@@H](Cc3c[nH]cn3)C(=O)N[C@@H](CCSC)C(=O)N3CCC[C@H]3C(=O)N[C@@H](Cc3ccc4ccccc4c3)C(=O)N[C@@H](C(C)C)C(=O)N2)C(N)=O)NC(=O)[C@H](C(C)C)NC(=O)[C@H](Cc2ccc3ccccc3c2)NC(=O)[C@@H]2CCCN2C1=O` (some centres unmarked) [AC-0005-056] was tested, and the “NH (Hill coefficient)” value was 1.7, the “Ki (AC-0005-002)/Ki” value (Example 4, fifth table) was 346 and the “Ki/Ki(EPO)” value (Example 4, fifth table) was 140.

For `CCN[C@@H](CC(N)=O)C(=O)N[C@@H](Cc1ccc(O)cc1)C(=O)N[C@@H](CC(C)C)C(=O)NC1CCOCC(C(=O)N[C@@H](CCCCNC(=N)N)C(=O)N2CCC[C@H]2C(=O)NC(CCCC(=O)NCCCCC(NC(=O)[C@@H]2CCCN2C(=O)[C@H](CCCCNC(=N)N)NC(=O)C2COCCC(NC(=O)[C@H](CC(C)C)NC(=O)[C@H](Cc3ccc(O)cc3)NC(=O)[C@H](CC(N)=O)NC(C)=O)C(=O)N[C@@H](CCCNC(=N)N)C(=O)N[C@@H](CCSC)C(=O)N3CCC[C@H]3C(=O)N[C@@H](Cc3ccc4ccccc4c3)C(=O)N[C@@H](C(C)C)C(=O)N2)C(=O)N[C@@H](CCCNC(=N)N)C(N)=O)C(=O)N[C@@H](CCCNC(=N)N)C(N)=O)NC(=O)[C@H](C(C)C)NC(=O)[C@H](Cc2ccc3ccccc3c2)NC(=O)[C@@H]2CCCN2C(=O)[C@H](CCSC)NC(=O)[C@H](CCCNC(=N)N)NC1=O` (some centres unmarked) [AC-0005-060], the Ki (Example 2, mimetics varied in loop, mid and C-end) was 19.8 nM, the IC50 (Example 4, sixth table) was 41.8 nM and the Ki (Example 4, sixth table) was 19.8 nM.

For `CSCC[C@@H]1NC(=O)[C@H](CCCNC(=N)N)NC(=O)C(NC(=O)[C@H](CC(C)C)NC(=O)[C@H](Cc2ccc(O)cc2)NC(=O)[C@H](CC(N)=O)NC(C)=O)CCOCC(C(=O)N[C@@H](CCCCN)C(=O)N2CCC[C@H]2C(=O)NC(CCCCNC(=O)CCCC(NC(=O)[C@@H]2CCCN2C(=O)[C@H](CCCCN)NC(=O)C2COCCC(NC(=O)[C@H](CC(C)C)NC(=O)[C@H](Cc3ccc(O)cc3)NC(=O)[C@H](CC(N)=O)NC(C)=O)C(=O)N[C@@H](CCCNC(=N)N)C(=O)N[C@@H](CCSC)C(=O)N3CCC[C@H]3C(=O)N[C@@H](Cc3ccc4ccccc4c3)C(=O)N[C@@H](C(C)C)C(=O)N2)C(=O)N[C@@H](CCCNC(=N)N)C(N)=O)C(=O)N[C@@H](CCCNC(=N)N)C(N)=O)NC(=O)[C@H](C(C)C)NC(=O)[C@H](Cc2ccc3ccccc3c2)NC(=O)[C@@H]2CCCN2C1=O` (some centres unmarked) [AC-0005-061], the “Ki (AC-0005-002)/Ki” value (Example 4, sixth table) was 140 and the “Ki/Ki(EPO)” value (Example 4, sixth table) was 462.

For `CSCC[C@@H]1NC(=O)[C@H](CCCNC(=N)N)NC(=O)C(NC(=O)[C@H](CC(C)C)NC(=O)[C@H](Cc2ccc(O)cc2)NC(=O)[C@H](CC(N)=O)NC(C)=O)CCOCC(C(=O)N[C@@H](CCCCN)C(=O)N2CCC[C@H]2C(=O)NC(CCCCNC(=O)CCCC(NC(=O)[C@@H]2CCCN2C(=O)[C@H](CCCCN)NC(=O)C2COCCC(NC(=O)[C@H](CC(C)C)NC(=O)[C@H](Cc3ccc(O)cc3)NC(=O)[C@H](CC(N)=O)NC(C)=O)C(=O)N[C@@H](CCCNC(=N)N)C(=O)N[C@@H](CCSC)C(=O)N3CCC[C@H]3C(=O)N[C@@H](Cc3ccc4ccccc4c3)C(=O)N[C@@H](C(C)C)C(=O)N2)C(=O)NCCC(=O)N[C@@H](CCCNC(=N)N)C(N)=O)C(=O)NCCC(=O)N[C@@H](CCCNC(=N)N)C(N)=O)NC(=O)[C@H](C(C)C)NC(=O)[C@H](Cc2ccc3ccccc3c2)NC(=O)[C@@H]2CCCN2C1=O` (some centres unmarked) [AC-0005-062], the “Ki (AC-0005-002)/Ki” value (Example 4, sixth table) was 3336 and the “Ki/Ki(EPO)” value (Example 4, sixth table) was 19.

In the case of `CSCC[C@@H]1NC(=O)[C@H](CCCNC(=N)N)NC(=O)C(NC(=O)[C@H](CC(C)C)NC(=O)[C@H](Cc2ccc(O)cc2)NC(=O)[C@H](CC(N)=O)NC(C)=O)CCOCC(C(=O)N[C@@H](CCCCNC(=N)N)C(=O)N2CCC[C@H]2C(=O)NC(CCCCNC(=O)CCCC(NC(=O)[C@@H]2CCCN2C(=O)[C@H](CCCCNC(=N)N)NC(=O)C2COCCC(NC(=O)[C@H](CC(C)C)NC(=O)[C@H](Cc3ccc(O)cc3)NC(=O)[C@H](CC(N)=O)NC(C)=O)C(=O)N[C@@H](CCCNC(=N)N)C(=O)N[C@@H](CCSC)C(=O)N3CCC[C@H]3C(=O)N[C@@H](Cc3ccc4ccccc4c3)C(=O)N[C@@H](C(C)C)C(=O)N2)C(=O)NCCC(=O)N[C@@H](CCCNC(=N)N)C(N)=O)C(=O)NCCC(=O)N[C@@H](CCCNC(=N)N)C(N)=O)NC(=O)[C@H](C(C)C)NC(=O)[C@H](Cc2ccc3ccccc3c2)NC(=O)[C@@H]2CCCN2C1=O` (some centres unmarked) [AC-0005-063], the “Ki (AC-0005-002)/Ki” value (Example 4, sixth table) is reported as 3720 and the “Ki/Ki(EPO)” value (Example 4, sixth table) is reported as 17.

For `CSCC[C@@H]1NC(=O)[C@H](CCCNC(=N)N)NC(=O)C(NC(=O)[C@H](CC(C)C)NC(=O)[C@H](Cc2ccc(O)cc2)NC(=O)[C@H](CC(N)=O)NC(C)=O)CCOCC(C(=O)N[C@@H](CCCCNC(=N)N)C(=O)N2CCC[C@H]2C(=O)NCCCOCCC(OCCCNC(=O)[C@@H]2CCCN2C(=O)[C@H](CCCCNC(=N)N)NC(=O)C2COCCC(NC(=O)[C@H](CC(C)C)NC(=O)[C@H](Cc3ccc(O)cc3)NC(=O)[C@H](CC(N)=O)NC(C)=O)C(=O)N[C@@H](CCCNC(=N)N)C(=O)N[C@@H](CCSC)C(=O)N3CCC[C@H]3C(=O)N[C@@H](Cc3ccc4ccccc4c3)C(=O)N[C@@H](C(C)C)C(=O)N2)C(N)=O)NC(=O)[C@H](C(C)C)NC(=O)[C@H](Cc2ccc3ccccc3c2)NC(=O)[C@@H]2CCCN2C1=O` (some centres unmarked) [AC-0005-064], the “Ki (AC-0005-002)/Ki” value (Example 4, sixth table) was 6450 and the “Ki/Ki(EPO)” value (Example 4, sixth table) was 10.

“I: Ac-GGNYLCRMGPITWVCKPQGG[ξK]-NH2 / II: Ac-GGNYLCRMGPITWVCKPQGG[Ava] (disulfide I:6-I:15, II:6-II:15; amide I:21-II:C) [AC-0005-001]” was tested, and the “Ki (AC-0005-002)/Ki” value (Example 4, first table) was 6.3.
